T1: UNK ZnF1-6 (called full-length) (human, UniProt Q9C0B0 30-357)
T1 sequence: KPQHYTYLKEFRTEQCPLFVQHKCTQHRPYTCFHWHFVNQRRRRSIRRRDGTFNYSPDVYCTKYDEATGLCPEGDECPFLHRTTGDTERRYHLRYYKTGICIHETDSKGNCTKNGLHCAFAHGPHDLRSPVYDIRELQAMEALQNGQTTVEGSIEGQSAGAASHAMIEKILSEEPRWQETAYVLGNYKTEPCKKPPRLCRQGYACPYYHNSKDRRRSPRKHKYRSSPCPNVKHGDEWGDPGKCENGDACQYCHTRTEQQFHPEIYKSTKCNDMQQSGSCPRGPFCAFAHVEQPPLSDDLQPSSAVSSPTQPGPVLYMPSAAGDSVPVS

B1: ENSG00000107863:be:win_601|CDS|ENSG00000107863|bound_else_gene|NA|bound_elsewhere_windowed (ssRNA)
RNA: GGGAGUUCUACAGUCCGACGAUCCCAAUCUGCUAUCCCUGGCUGCCAUCUGCCCCAUCAGCCAUGGCACAGCCAGUUGAAAUAUCUCCUCCUGACUCAUCAUUGAGCAAACAGCAAACCAGUACACCAGUACUGACACAACCUCAACAGAGGAUUGAGCAUCA
B2: chr12:104348774:104348848:+|3pUTR|ENSG00000198431|msi1_unk|FALSE|overlapping (ssRNA)
RNA: GGGAGUUCUACAGUCCGACGAUCCGUUGUCAAGUUUUCUAGGGUUGAAUUUUUUUCUUUUUUCUCCAUGGUGUUAAUGAUAUUAGAGAUGAAAAACGUUAGCAGUUGAUUUUUGUCCAAAAGCAAGUCAUGGCUAGAGUAUCCCAACAGAGGAUUGAGCAUCA
B3: chr11:75572625:75572772:+|3pUTR|ENSG00000149257|msi1|total|mutant (ssRNA)
RNA: GGGAGUUCUACAGUCCGACGAUCUCUGGCGUUGUGGGGAUGAACUUUUUGUUUUGUUUCUUCCUUUUUCCGUUCUUCAAAGACCGGGAGGGAAGGGGGAACAUGAGCCUUUGUUGCUAUCAAUCCAAGAACUUAUUUGUACAUCAACAGAGGAUUGAGCAUCA
B4: ENSG00000198774:stop:overlap|stop_codon|ENSG00000198774|stop_codon|NA|stop_codon (ssRNA)
RNA: GGGAGUUCUACAGUCCGACGAUCGUUCUAACCACAGUCAGGACUCCGAAACAACAGUAGGAGAUGUGGUGCUGUUGUCAACAUAGUUCCAAUGGCUCCUUUCUGACCUGCUUUCAUGUUUUAAUGUUUGUUUAAUUUAAUAGGCAACAGAGGAUUGAGCAUCA
B5: chr9:132694550:132694651:+|3pUTR|ENSG00000125484|unk|total|mutant (ssRNA)
RNA: GGGAGUUCUACAGUCCGACGAUCUUCCUGAAGAUUACAUAUCAGUGUCCUGCGUUUUUAUCUAAUAUCCGAGCUGAGGUUCCCCGGAAAAUUUUGAAGUGGGGAAGAUUAUGGAGAAAAUGAAAUGGAAAUUUGGGGAGGGUGCAACAGAGGAUUGAGCAUCA
B6: chr8:10764960:10765785:-|three_prime_utr|ENSG00000254093|control|control|control (ssRNA)
RNA: GGGAGUUCUACAGUCCGACGAUCCCGGGACUUCACCCUGAAGCCCAAAAAGAGGAGAGGGAAGAAAAAGCUGCAAAAACCAGUAGAGAUAGCAGAGGACGCUACACUAGAAGAAACGCUAGUGAAAAAGAAGAAGAAGAAAGACAACAGAGGAUUGAGCAUCA
B7: chr1:225495143:225495244:-|3pUTR|ENSG00000154380|msi1|FALSE|unique (ssRNA)
RNA: GGGAGUUCUACAGUCCGACGAUCACAUUAUUAUGAUGGUUUUUGUGCUCUUGUACGUUGGAUGUCUUAAGCUGAGUACAGUUUAGGGGAUCCUUUCUAAUGACAGGAAGGCACUGCUUUCCUCAACACUGUGAUCUGACCUGUCAACAGAGGAUUGAGCAUCA
B8: chr1:226361101:226361261:-|3pUTR|ENSG00000143799|msi1|FALSE|unique (ssRNA)
RNA: GGGAGUUCUACAGUCCGACGAUCUUUCUUGCCAGGUAGAUAAAACUGACAUAGAGAAAAGGCUGGAGAGAGAUUCUGUUGCAUAGACUAGUCCUAUGGAAAAAACCAAGCUUCGUUAGAAUGUCUGCCUUACUGGUUUCCCCACAACAGAGGAUUGAGCAUCA
B9: chr1:116393555:116393656:+|CDS|ENSG00000163399|msi1|total|mutant (ssRNA)
RNA: GGGAGUUCUACAGUCCGACGAUCCCCCAACACAUCGGAGCCCCAACACCUGUUGGUGAUGAAGGGCGCCCCAGAAAGGAUCCCCGACCGUUGCAGCUCUAUCCUCCUCCACGGCAAGGAGCAGCCCCUGGAUGAGGAGCUGAACAACAGAGGAUUGAGCAUCA
B10: chrX:103499925:103500756:-|CDS|ENSG00000172476|control|control|control (ssRNA)
RNA: GGGAGUUCUACAGUCCGACGAUCUGAGGUCAGCCCUCUGUGCAAUUUCAACAUCAUAGAGUCUUUCACGGAGCUGGCCAGGAUAGUGCUGCUGCGGCACAGGAUGAAUUGGCUCGGGAGGCCGAGCAAGGUACUGAGCUUGCACAACAGAGGAUUGAGCAUCA
B11: chr6:134169319:134169461:-|3pUTR|ENSG00000118515|unk|FALSE|unique (ssRNA)
RNA: GGGAGUUCUACAGUCCGACGAUCUGCAUUCCUGAUAAUUGUAUGUAUUGUAUAAAGAACGUCUGUACAUUGGGUUAUAACACUAGUAUAUUUAAACUUACAGGCUUAUUUGUAAUGUAAACCACCAUUUUAAUGUACUGUAAUCAACAGAGGAUUGAGCAUCA
B12: chr1:65389253:65389354:+|CDS|ENSG00000116675|unk|FALSE|unique (ssRNA)
RNA: GGGAGUUCUACAGUCCGACGAUCGUUAGAUGCAUGUGAUGUACCAGAAAAAUAUCCUCAGCUAUUUCAGGUGACACUGGAUGUAGAACUACAGCCCCAUGACAAAGUAAUAGACUUAACUCCACCAUGGGAACAUUACUGCACCAACAGAGGAUUGAGCAUCA
B13: chr14:75134463:75134564:-|3pUTR|ENSG00000170348|msi1|total|mutant (ssRNA)
RNA: GGGAGUUCUACAGUCCGACGAUCCUGUUUGGACUAUGUUUUCUUUUCUUCUCCCACUUGCUCAGCAGCUUGGGCUUCCAUUCCCGUUCUUUUACCAAGAUUUUUGUGUGACCAUGUUGACUUCAUUUGGAUUGCCCUCUUUCACAACAGAGGAUUGAGCAUCA
B14: ENSG00000249115:stop:overlap|stop_codon|ENSG00000249115|stop_codon|NA|stop_codon (ssRNA)
RNA: GGGAGUUCUACAGUCCGACGAUCACAGUCCACAGGUGAGAAGCAUAUGCUACAAGAUUCUCUUUCAUCCGAAAAAUGACUUGUAGAUCUUCUGCUCUAAGCCCAACCAGGUGCUGGGUGAUGCUGGGGACAAUGGGUCACAAGCAACAGAGGAUUGAGCAUCA
B15: ENSG00000104047:stop:overlap|stop_codon|ENSG00000104047|stop_codon|NA|stop_codon (ssRNA)
RNA: GGGAGUUCUACAGUCCGACGAUCACCAGUUGAUAAAGAAUGCCAAAUGCUCUGGAGAUAAGGAAACAGGAAAACUUACACAUUAGUUUUUAACAAGCCACUUAUGUCUUUUUAUUUUGCUAACAUUAAUAAACUUAUAUUUGUCAACAGAGGAUUGAGCAUCA
B16: chr4:119293926:119294030:+|3pUTR|ENSG00000145390|unk|total|mutant (ssRNA)
RNA: GGGAGUUCUACAGUCCGACGAUCGAUGGAAUUUAAUUUUGCUCCCCGAAUUUUUGUCUUCAGAAUAUCCCGUUAAGAUAAAUCCGGCCUUUGACUAUUACCGGUAUUCAUAAAUGCUACUUCCGCCAUGUAAGUUAAAAAGUUCAACAGAGGAUUGAGCAUCA
B17: chr4:155836688:155836857:-|CDS|ENSG00000256394|control|control|control (ssRNA)
RNA: GGGAGUUCUACAGUCCGACGAUCUAAGGAUUUAUGUACAGUAGGAACACAUAACUCUAGCUGCCCCGUUUCUUGUGAAGAAAUAGAAUACCCGGCCACUAUUUCUUAUUCCUCUUUUCCAAGUCAAAAAGCUUUGAAAUAUCUCAACAGAGGAUUGAGCAUCA
B18: chr2:53865134:53865235:-|3pUTR|ENSG00000068878|unk|FALSE|unique (ssRNA)
RNA: GGGAGUUCUACAGUCCGACGAUCGUCCUGUCAUUUCAUUCAUCUCAAAUUAUUUUGAAUUCUUCCCAAAUGGCUGCUGGAUUUAGGUGGUAAUAGGGGCUGUGGGCCAUAAAUCUGAAGCCUUGAGAACCUUGGGUCUGGAGACAACAGAGGAUUGAGCAUCA
B19: chr1:46316673:46316776:+|3pUTR|ENSG00000173660|unk|FALSE|unique (ssRNA)
RNA: GGGAGUUCUACAGUCCGACGAUCUGUUUCUUAUUUGUGUAACUGUAAGUUCACAUGAACCUCAUGGGUUUGGCUUAGGCUGGUAGCUUCUAUGUAAUUCGCAAUGAUUCCAUCUAAAUAAAAGUUCUAUGAUCUGCAAACCUGCAACAGAGGAUUGAGCAUCA
B20: chr5:147393259:147393361:-|3pUTR|ENSG00000113657|msi1_unk|total|mutant (ssRNA)
RNA: GGGAGUUCUACAGUCCGACGAUCAGACCCAACCAUUUCUUCCACCUGCUUGAUUGUGCCAGUGUUUGCUCAGGCCUCUUUCUCCGUGUUGCUUUCAAAUCCUUCUCUUUCCUGGGUUGGGAAGGCCAGGCAGGGACAGAGCAACAACAGAGGAUUGAGCAUCA
B21: chr17:81509976:81510077:-|3pUTR|ENSG00000184009|msi1|FALSE|unique (ssRNA)
RNA: GGGAGUUCUACAGUCCGACGAUCUCUCGAUUCUUUGAAGAGAUGACAACAAAUUUUGGUUUUCUACUGUUAUGUGAGAACAUUAGGCCCCAGCAACACGUCAUUGUGUAAGGAAAAAUAAAAGUGCUGCCGUAACCAAUGAAUCAACAGAGGAUUGAGCAUCA
B22: chr7:108502517:108502634:-|CDS|ENSG00000135241|unk|FALSE|unique (ssRNA)
RNA: GGGAGUUCUACAGUCCGACGAUCAUUAUUCCAUAUUUAUUACGACUGAGACAAAUUAAGGAUGAAACUCUUCAGGCUGCAGUUAGAGAAAUUUUGGCCCUAAUUGGCUAUGUGGAUCCAGUGAAAGGGAGAGGAAUCCGAAUUCAACAGAGGAUUGAGCAUCA

Some of the results follow.

This test concerns the target T1, UNK ZnF1-6 (called full-length). Kind of test: nsRBNS (natural sequence RNA bind-n-seq); RBNS binding buffer (assumed for nsRBNS): 25 mM Tris pH 7.5, 150 mM KCl, 3 mM MgCl2, 0.01% Triton X-100, 500 ug/ml BSA, 20 U/ml SUPERase-In, 4 C; UNK is unkempt and MSI1 is Musashi-1; names of the RNAs are library labels; protein concentration not given here; high values mean tight binding.
Molecule B1 displayed a binding signal of 0.488 enrichment R.
The molecule B2 had a binding signal of 1.18 enrichment R.
For B3 the value was 0.461 enrichment R; for B4, 0.722 enrichment R; for B5, 0.795 enrichment R.
For B6 the value was 0.856 enrichment R.
For B7 the value was 0.301 enrichment R; for B8, 0.839 enrichment R; for B9, 0.555 enrichment R.
Molecule B10 returned a binding signal of 0.72 enrichment R.
Then B11, with 1.14 enrichment R.
Then B12, with 0.901 enrichment R.
Then B13, with 0.495 enrichment R.
Regarding B14, the binding signal worked out at 0.79 enrichment R.
Then B15, with 0.937 enrichment R.
Then B16, with 0.524 enrichment R; and B17, with 0.576 enrichment R; and B18, with 0.689 enrichment R.
As to B19, the binding signal is 0.574 enrichment R.
For B20 the value was 0.641 enrichment R; for B21, 0.271 enrichment R.
With B22, the binding signal came out at 1.1 enrichment R.

These data come from article PMC12136788.
